This passage reports binding signal results from paper PMC12136788.

Some of the results follow.

To fix the notation:
T1: UNK ZnF1-3 (human, UniProt Q9C0B0 31-174)
T1 sequence: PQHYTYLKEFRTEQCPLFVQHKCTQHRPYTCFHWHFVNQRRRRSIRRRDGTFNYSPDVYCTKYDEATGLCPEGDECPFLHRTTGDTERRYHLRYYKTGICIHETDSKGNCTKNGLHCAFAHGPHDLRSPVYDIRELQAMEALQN

B1: chr4:21803547:21803548:+_ENSMUSG00000028248_ENSMUST00000098238|mus_mus|motif|central (ssRNA)
RNA: GGGAGUUCUACAGUCCGACGAUCUUCACUUGAAGAGUAAUCUAAAACACUUUAAGGUAUGAAAAUUUUAUACAACUUAUCGGUUACAAAUUAAUCAGAAUUCUUCAAUUAGAUACACUGUGUUAGCUCACCUACAUAAAAAAUCAACAGAGGAUUGAGCAUCA
B2: chr5:80946147:80946148:-_ENSG00000145687_ENST00000505980|hu_hu|motif|central (ssRNA)
RNA: GGGAGUUCUACAGUCCGACGAUCUGUUUGAGCUGAUUUCUGAGCUCCUACAUGGAGCAGAUAUUCAUAUACGUAGAGUGCGGACUUCUCCCGGGCCUGGCUGUCGGACGGGACGGCGCUGCUGUUACUCUUGCCUUUGCCGUACAACAGAGGAUUGAGCAUCA
B3: chr4:17845017:17845018:+_ENSG00000109805_ENST00000514176|hu_mus|hu_hu_hu_mus_False|58_108 (ssRNA)
RNA: GGGAGUUCUACAGUCCGACGAUCGCUUCCUAACUUAGUAUCUUCAUUAAGGAACUCUGCAAGGUUAAGUUUACUUUUUCUAGUGCUAGCUGUUUUGGCUCGUCUGGGUAAUCUCAUCUUCAUUUCUGAUGGUGGUUCAUGAUCCAACAGAGGAUUGAGCAUCA
B4: chr2:48026839:48026840:+_ENSG00000116062_ENST00000540021|hu_mus|FALSE|FALSE (ssRNA)
RNA: GGGAGUUCUACAGUCCGACGAUCAUAGUGAGCCACUAGCGUCCUAAAUCUGGAACAGUGGCGGUCAUCCGAAAACUGGCCGAUGAAAAACUUGCCCAGUGAAGUGUCCACAAAGCAAACACCAUACACACGAGUGUGACCAGACAACAGAGGAUUGAGCAUCA
B5: chr5:95130247:95130248:+_ENSG00000164292_ENST00000379982|hu_hu|motif|central (ssRNA)
RNA: GGGAGUUCUACAGUCCGACGAUCGGUUUGUGAGUUUCUGAUAUAAUUAUUUCUCUAUACAUGUGAUAUGAAAGAAAGAAACGGUCAGUCUGUCCUCUAUCCCAGUCCAUUUUCCCUCUAUGUAACAAGUCUUUGACUUACAUCCAACAGAGGAUUGAGCAUCA
B6: chr3:179287964:179287965:+_ENSG00000136518_ENST00000429709|hu_hu|hu_hu_hu_mus_True|58_78 (ssRNA)
RNA: GGGAGUUCUACAGUCCGACGAUCCUUGAGUGGUGAGAUGGCCUCCAUGUUCUCCCUCGGAACACGCAGGGCAUUGGUAUCUAUGUAGUAGGUGGGCCCGCCCUGCUUGCCUUUGUCACCAUCAAUCUCCAUCAUUGUACUUCCCAACAGAGGAUUGAGCAUCA
B7: chr3:150289932:150289933:+_ENSG00000144895_ENST00000460851|hu_hu|hu_hu_hu_mus_False|78_108 (ssRNA)
RNA: GGGAGUUCUACAGUCCGACGAUCCUUGUAGUUUUUCACAUCCCAUACUUCCAUUUGUCCCCUCAGAUUUCCAAAUCCAGCCAGCACUAAUAUAUGUCCAUGAGGGCUAUAGAAGGCUGCGUUGCGAGGACCAGUCCCAAAGUCCAACAGAGGAUUGAGCAUCA
B8: 109690576_109690696_4732_CDS_ENSG00000148143_ENST00000277225|human|control|control (ssRNA)
RNA: GGGAGUUCUACAGUCCGACGAUCAGCAGCCUUCACUUUCAUGCCAGGGUGCUUCUUCCCAUAAUGAGUGAGAAGGCCGUGCAAGUUGUUAUACUCAGAUUGGCAUACCGUGCACUGGUAUGGGGUGGAGGAUAUGGCGGGGUUCAACAGAGGAUUGAGCAUCA
B9: chrX:147030916:147030917:+_ENSG00000102081_ENST00000218200|hu_mus|FALSE|FALSE (ssRNA)
RNA: GGGAGUUCUACAGUCCGACGAUCAAUAUUCCUACCUGCCAAGAUAUAAAAAAGGCACAGAUCAUACAACUCUUUUUUUUGCUAAUGAAAAUAACAAAUGUCACAUCACACACAUUUCAGGGUCCACUAAAAUACUGGAAAAGUCAACAGAGGAUUGAGCAUCA
B10: chr4:115894766:115894767:+_ENSMUSG00000028698_ENSMUST00000030464|mus_hu|mus_mus_mus_hu_True|8_38 (ssRNA)
RNA: GGGAGUUCUACAGUCCGACGAUCUUCCACACGGAAAUGUACUUCGGGUUUUCCAACGGCCAGUACCAGUCCGGCCAAACUACCCGAACAGGGUCCUGUCCUCCUCUCCUACAGAACACAACAAAAUAACAAAAUACUUUCAAGCAACAGAGGAUUGAGCAUCA
B11: 11579980_11580100_4645_3pUTR_ENSG00000205269_ENST00000379426|human|control|control (ssRNA)
RNA: GGGAGUUCUACAGUCCGACGAUCUAGAAGACUGAAGGGUUAUAUAUCGCUCUUACUUUUCAAGAAGAAUAAUUAGCAAAUAGCAGAAAGUCAAUAAAUCAACAUGGCUGAAUGAAUCCAAGGGAAGUAAGUGGGAAUAGAUAACAACAGAGGAUUGAGCAUCA
B12: 153932629_153932749_3192_ncRNA_ENSMUSG00000028360_ENSMUST00000144677|mouse|control|control (ssRNA)
RNA: GGGAGUUCUACAGUCCGACGAUCGGUCAGUUCUGGCGACAGUUCAAGCAUUUCCAUAGAAUGACUUAAGAAAUAACAUUUACUCCCCAUCCAAAUUCACUUUCUAAAUUACAGCAUCUAUUUCCAAAUUGCCUUUGUUUGGCCCAACAGAGGAUUGAGCAUCA
B13: chr3:196089228:196089229:-_ENSG00000163960_ENST00000296328|hu_mus|FALSE|FALSE (ssRNA)
RNA: GGGAGUUCUACAGUCCGACGAUCUUCCCUUUUUCCAUCUGGGUACCGCAGCAUCAGCUGUGCUUUUGGUCCAUUUACAUCUAUCCCCUCCACUAUUCCAUCUGACUUUUCAGGUGACAUCUCCAAGACCUCAGAAUCCAUGGACAACAGAGGAUUGAGCAUCA
B14: chr4:94236435:94236436:-_ENSMUSG00000028577_ENSMUST00000107107|mus_mus|FALSE|FALSE (ssRNA)
RNA: GGGAGUUCUACAGUCCGACGAUCCUGGGACAUCAUGAGCUUUUGUCCUGCCUGACUAACAAAGCAAUUGCAAAAAGUCCUAAGAGCAAGCAGCUGGUUUGCUGGCUUUCCUUUGGGGUUCAGAAGGUUGAUAAGAUGGCUGCUCAACAGAGGAUUGAGCAUCA
B15: chr1:219384972:219384973:+_ENSG00000143353_ENST00000366928|hu_hu|FALSE|FALSE (ssRNA)
RNA: GGGAGUUCUACAGUCCGACGAUCCCAUAACUUCAAUAUGUCUAACUCAGUUUUGCUUAGCUCAUGGUAAACAUUUGGAAAACUAUGAAACUUCGUGGUCACUCCUAGAGAUUUUAACAUUGAGUUUGUCUCUUCUGCCCAAGACAACAGAGGAUUGAGCAUCA
B16: chr8:67197462:67197463:-_ENSMUSG00000031604_ENSMUST00000034015|mus_hu|motif|central (ssRNA)
RNA: GGGAGUUCUACAGUCCGACGAUCCUGAAAUGACCAGUAUAUAUCUAAAAGAUUUAAAGACCCAAUGUGAACUUCAGGCCGGUGGUUUUACUGGGAGAAAAGCCAUAGAUUAAUACUUCUAGUAUCCAAAACCUUCUUGGAAGCCAACAGAGGAUUGAGCAUCA
B17: 61442511_61442631_1450_CDS_ENSG00000126814_ENST00000261249|human|control|control (ssRNA)
RNA: GGGAGUUCUACAGUCCGACGAUCUGACAGACCCAGCAGCUGCAUUAACUCUUCUUUGACUGGUCCUUGGAGGAAGUCUUUCCCAUCCAAGUUGAAGACUUUCACCUUUUGGUCCACUUUAUUUAAUUUACAGUUGUACAACAGCAACAGAGGAUUGAGCAUCA
B18: 68173346_68299047_163_5pUTR_ENSG00000172380_ENST00000370982|human|control|control (ssRNA)
RNA: GGGAGUUCUACAGUCCGACGAUCGUGCUUGCUGUUUUGCUGGACAUCUUCAAUUAUUGUUUUUACCUGAAAUCAGUAAGACUUUGUGUGGUCCAAUGUUUUCAGGUUUUAAGUGGAAUGAAUCCGCCUGCCGGUGCGCUGCCCCAACAGAGGAUUGAGCAUCA
B19: chr7:141438946:141438947:+_ENSG00000106028_ENST00000265304|hu_mus|hu_hu_hu_mus_True|78_78 (ssRNA)
RNA: GGGAGUUCUACAGUCCGACGAUCGACGAAAUACCUGUAACACAGGUCUUCGAAACAUUCUAUUUUCUUUUCUUACAACCUAAUCUUUAGGCUUUUCCUAAAGGAAAGAAAGAAAAGAGAAAAAUGAUAAAUCAAGAAACUACACAACAGAGGAUUGAGCAUCA
B20: chr12:16048344:16048345:+_ENSG00000023734_ENST00000419869|hu_mus|motif|central (ssRNA)
RNA: GGGAGUUCUACAGUCCGACGAUCAGAUCGUCCAUAAGUAAUAACCAAAAUCUCUCCUUCAGGAAUAUACUCCAUGCUGCGGACAGACAUAUUAAAAUUCAGAGAUUUCACUUCUGUCAUUGUGGCAUGAUCCCAGAGCCGAACCAACAGAGGAUUGAGCAUCA
B21: chr1:58468927:58468928:-_ENSMUSG00000026034_ENSMUST00000148330|mus_mus|mus_mus_mus_hu_False|1_78 (ssRNA)
RNA: GGGAGUUCUACAGUCCGACGAUCAAUUACUGAAAAAGAUGUUCAUUACCUUAGCUAGGCCAUGUAUGAACCAAAUUACCCAAACAAAAUAAACAUGGCAAUAUAAAAAUGUUAAGAAUUUACAAAGCUGUACAAAAAGACUGACAACAGAGGAUUGAGCAUCA
B22: 12845315_12845435_96_CDS_ENSG00000123144_ENST00000591254|human|control|control (ssRNA)
RNA: GGGAGUUCUACAGUCCGACGAUCCACCGGGCUCGAACCCGCGCCCGACACCUCCUCGUCCCCGCUCUCGGGCGACGUCCCCGAUCCCGACUCAGCCCAACGGCUCCCGCCACCGCCACCGCCCGCGGGGCCCGGAGCCUCCCGCAACAGAGGAUUGAGCAUCA

In this experiment the target is T1, UNK ZnF1-3. Briefly: nsRBNS (natural sequence RNA bind-n-seq); RBNS binding buffer (assumed for nsRBNS): 25 mM Tris pH 7.5, 150 mM KCl, 3 mM MgCl2, 0.01% Triton X-100, 500 ug/ml BSA, 20 U/ml SUPERase-In, 4 C; UNK is unkempt and MSI1 is Musashi-1; names of the RNAs are library labels; protein concentration not given here; high values mean tight binding.
B1 had a binding signal of 1.04 enrichment R.

The molecule B2 showed a binding signal of 0.649 enrichment R.

On to B3, for which the binding signal stood at 0.437 enrichment R.

In turn, B4 registered a binding signal of 1.13 enrichment R.

Molecule B5 registered a binding signal of 0.58 enrichment R.

Regarding B6, the binding signal amounted to 0.417 enrichment R.

The molecule B7 showed a binding signal of 1.16 enrichment R.

B8 showed a binding signal of 1.35 enrichment R.

As to B9, the binding signal stood at 1.68 enrichment R.

Molecule B10 registered a binding signal of 0.879 enrichment R.

On to B11, for which the binding signal was found to be 0.98 enrichment R.

As for B12, the binding signal was 1.34 enrichment R.

B13: the binding signal worked out at 0.778 enrichment R.

B14 registered a binding signal of 1.52 enrichment R.

As to B15, the binding signal is 0.84 enrichment R.

B16 displayed a binding signal of 1.47 enrichment R.

B17: the binding signal is 0.672 enrichment R.

B18 registered a binding signal of 0.441 enrichment R.

B19 came in with a binding signal of 0.261 enrichment R.

For the molecule B20, the binding signal came to 0.903 enrichment R.

Regarding B21, the binding signal worked out at 1.42 enrichment R.

B22 showed a binding signal of 3.2 enrichment R.
